Experimental data taken from the supplement of paper PMC4967469.
pIC50: −log10 of the molar value. Lines with a small IC50 respond at low doses; fits outside the tested doses are given as limits. For AUC the same curve is integrated over the 256-fold range of doses and scaled to a fraction; the more sensitive the line, the further below 1. For some assays here: A top dose marked as inferred is not printed in the source and was worked back from the curve model. For some assays here: Where an entry number is given, a second screen of the drug exists; the two often differ.

Columns and labels:
Experiment in all cases: Viability of human cancer cell lines after 72 h of drug (GDSC screen)
[1] = compound: C#Cc1cccc(Nc2ncnc3cc(OC)c(OCCCCCCC(=O)NO)cc23)c1 [CUDC-101]; settings: top dose 5.12 µM; top dose inferred
Method: (§1)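 Human cancer cell lines in 384-well plates, medium with 10% serum, drug for 72 h over a 256-fold dose range (nine 2-fold or five 4-fold steps up to the top dose). Adherent lines were fixed and stained with the nucleic acid dye Syto60, suspension lines read with resazurin; signal relative to control wells, capped at 0 and 100%. One two-parameter sigmoid per drug and line, fitted in a mixed model over all curves with the slope shared within a line.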

[2] = compound: CC(C)(C)c1cc(NC(=O)Nc2ccc(-c3cn4c(n3)sc3cc(OCCN5CCOCC5)ccc34)cc2)no1 [AC220]; settings: top dose 1.024 µM; top dose inferred
Method: as §1

[3] = compound: COc1cc(F)c(F)c(Nc2ccc(I)cc2F)c1NS(=O)(=O)C1(C[C@H](O)CO)CC1 [RDEA119]; settings: top dose 5 µM, top dose inferred
Method: as §1

[4] = compound: Fc1cc(-c2ccnc(Nc3ccc(-n4cnc(N5CCOCC5)n4)cc3)n2)cc(N2CCOCC2)c1 [JNK-9L]; settings: top dose 5.12 µM; top dose inferred
Method: as §1

[5] = compound: NCC(=O)Nc1ccc(-n2nc(C(F)(F)F)cc2-c2ccc3c(ccc4ccccc43)c2)cc1 [OSU-03012]; settings: top dose 16 µM; top dose inferred
Method: as §1

[6] = compound: O=c1[nH]cc(F)c(=O)[nH]1 [5-Fluorouracil]; settings: top dose 32 µM; top dose inferred
Method: as §1

[7] = compound: OC[C@H](Cc1ccccc1)Nc1nc(Oc2ccc3c(c2)CCC3)nc2c1ncn2Cc1ccc(-c2ccccc2)cc1 [QS11]; settings: top dose 10.24 µM
Method: as §1

Cell Line	AUC [1]	pIC50 [1]	AUC [2]	pIC50 [2]	AUC ([3]; screen: GDSC drug entry 1014)	pIC50 ([3]; screen: GDSC drug entry 1014)	AUC ([3]; screen: GDSC drug entry 1526)	pIC50 ([3]; screen: GDSC drug entry 1526)	AUC [4]	pIC50 [4]	AUC [5]	pIC50 [5]	AUC [6]	pIC50 [6]	AUC [7]	pIC50 [7]
KMRC-20 (kidney, adherent)	0.987	< 5.29	0.989	< 5.99	0.878	< 5.30	0.93	< 5.30	0.863	5.34	0.761	5.24	0.976	< 4.49	–	–
NCI-H630 (large intestine, adherent)	0.687	5.95	0.988	< 5.99	0.853	5.36	0.845	5.40	0.624	6.14	–	–	0.809	4.74	–	–
NB-4 (acute myeloid leukaemia, suspension)	0.173	7.37	–	–	0.16	7.42	0.28	7.07	0.5	6.49	0.417	6.21	0.51	5.67	0.611	5.91
MV-4-11 (leukaemia, suspension)	–	–	–	–	0.621	6.20	0.679	6.05	0.548	6.37	0.631	5.67	0.196	6.50	0.85	5.24
GDM-1 (acute myeloid leukaemia, suspension)	0.333	6.95	–	–	0.987	< 5.30	0.939	< 5.30	0.466	6.59	0.754	5.29	0.528	5.63	0.774	5.41
D-336MG (glioma, adherent)	–	–	0.972	< 5.99	–	–	0.824	5.38	0.717	5.80	–	–	0.97	< 4.49	–	–
PL-21 (acute myeloid leukaemia, suspension)	0.54	6.38	–	–	–	–	0.797	5.55	0.443	6.66	0.716	5.34	0.869	< 4.49	0.922	< 4.99
OCI-AML2 (acute myeloid leukaemia, suspension)	0.328	6.92	–	–	0.032	> 7.71	0.059	> 7.71	0.587	6.28	0.612	5.73	0.267	6.27	0.859	5.28
SW48 (large intestine, adherent)	0.463	6.60	0.987	< 5.99	0.861	5.38	0.747	5.80	0.539	6.39	–	–	0.77	4.92	0.974	< 4.99
LB647-SCLC (small cell lung carcinoma, semi-adherent)	0.98	< 5.29	–	–	0.985	< 5.30	–	–	0.808	5.52	0.753	5.23	0.931	< 4.49	0.801	5.24
8505C (thyroid, adherent)	0.529	6.41	0.981	< 5.99	0.766	5.71	–	–	0.595	6.23	0.586	5.76	0.756	4.94	–	–
COLO-800 (melanoma, adherent)	0.938	< 5.29	0.975	< 5.99	0.96	< 5.30	0.961	< 5.30	–	–	0.821	5.05	0.757	4.97	0.987	< 4.99
Hs746T (stomach, adherent)	0.476	6.57	0.98	< 5.99	0.807	5.43	0.853	< 5.30	0.939	< 5.29	–	–	0.906	< 4.49	–	–
EMC-BAC-1 (lung adenocarcinoma, adherent)	0.493	6.51	0.969	< 5.99	0.787	5.60	0.827	5.44	–	–	–	–	0.859	< 4.49	–	–
SU-DHL-10 (B-cell lymphoma, suspension)	0.056	7.64	0.978	< 5.99	0.998	< 5.30	0.998	< 5.30	0.388	6.76	–	–	0.782	5.01	–	–
YH-13 (glioma, adherent)	0.679	5.98	0.967	< 5.99	0.82	5.51	0.841	5.42	–	–	–	–	0.98	< 4.49	–	–
SNU-61 (large intestine, adherent)	0.461	6.62	0.972	< 5.99	0.89	< 5.30	0.828	5.34	–	–	–	–	0.664	5.18	–	–
KMS-11 (myeloma, suspension)	0.519	6.45	0.981	< 5.99	0.943	< 5.30	0.966	< 5.30	–	–	–	–	0.876	4.62	–	–
CHP-134 (neuroblastoma, suspension)	0.384	6.85	0.955	< 5.99	0.98	< 5.30	–	–	–	–	–	–	0.509	5.67	–	–
QGP-1 (pancreas, adherent)	0.558	6.30	0.964	< 5.99	0.809	5.31	0.833	< 5.30	–	–	–	–	0.778	4.65	–	–
SNU-81 (large intestine, adherent)	0.979	< 5.29	0.952	< 5.99	0.744	5.69	0.732	5.74	–	–	–	–	0.617	5.33	–	–
NCI-H1963 (small cell lung carcinoma, suspension)	0.888	5.35	–	–	–	–	–	–	0.67	6.05	0.875	4.91	0.932	< 4.49	0.97	< 4.99
